{"source": "paper PMC4336329", "about": "(PLoS ONE, 2015)", "note": "About 14,000 (4.5%) of roughly 310,000 compounds showed an effect of 50% or more. The effect is printed as a negative number. This is one part of the list.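 Further: peak tail current of the secondary pulse compared with the same well before compound.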"}
{"molecular_target": "human ether-à-go-go-related gene (hERG) potassium channel (human, UniProt Q12809)", "sequence (Q12809 whole entry, looked up)": "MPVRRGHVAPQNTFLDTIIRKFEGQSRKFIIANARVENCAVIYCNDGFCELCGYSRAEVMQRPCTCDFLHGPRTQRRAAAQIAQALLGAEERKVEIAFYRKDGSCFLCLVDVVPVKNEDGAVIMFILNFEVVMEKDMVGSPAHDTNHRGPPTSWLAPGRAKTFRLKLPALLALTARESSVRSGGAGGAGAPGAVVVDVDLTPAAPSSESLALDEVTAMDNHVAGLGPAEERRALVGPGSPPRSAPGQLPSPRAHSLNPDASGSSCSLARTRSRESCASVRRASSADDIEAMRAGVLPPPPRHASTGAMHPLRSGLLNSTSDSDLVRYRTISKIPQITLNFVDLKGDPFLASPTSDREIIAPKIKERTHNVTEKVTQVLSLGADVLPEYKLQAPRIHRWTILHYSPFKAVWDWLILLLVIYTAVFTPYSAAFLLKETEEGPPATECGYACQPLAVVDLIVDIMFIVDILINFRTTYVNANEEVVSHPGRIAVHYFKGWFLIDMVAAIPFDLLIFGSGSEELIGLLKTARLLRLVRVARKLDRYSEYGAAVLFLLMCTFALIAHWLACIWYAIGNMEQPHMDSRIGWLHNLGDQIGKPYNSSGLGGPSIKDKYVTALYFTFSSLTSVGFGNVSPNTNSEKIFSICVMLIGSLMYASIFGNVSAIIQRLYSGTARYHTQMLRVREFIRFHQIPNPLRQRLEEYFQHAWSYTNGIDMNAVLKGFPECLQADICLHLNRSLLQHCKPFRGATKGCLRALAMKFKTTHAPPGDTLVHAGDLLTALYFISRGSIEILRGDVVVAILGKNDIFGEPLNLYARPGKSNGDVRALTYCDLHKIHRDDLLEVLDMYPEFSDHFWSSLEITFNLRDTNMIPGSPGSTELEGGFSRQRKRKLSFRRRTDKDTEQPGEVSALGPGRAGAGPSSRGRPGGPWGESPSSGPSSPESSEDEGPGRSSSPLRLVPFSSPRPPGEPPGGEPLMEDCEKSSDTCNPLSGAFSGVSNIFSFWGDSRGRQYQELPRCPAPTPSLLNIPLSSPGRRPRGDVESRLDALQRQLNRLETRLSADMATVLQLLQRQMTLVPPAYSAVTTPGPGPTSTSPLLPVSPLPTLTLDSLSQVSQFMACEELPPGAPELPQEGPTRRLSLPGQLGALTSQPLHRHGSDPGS", "experiment": "primary screen, population patch clamp on CHO cells stably expressing hERG", "units": {"hERG current change (%, negative = inhibition) at 10uM": "%"}}
{"smiles": "O=C(OCC(=O)N1CCOCC1)c1ccccc1OCc1ccccc1", "hERG current change (%, negative = inhibition) at 10uM": -1.44}
{"smiles": "COc1ccc(C(CNC(=O)c2oc3c(Cl)cccc3c2C)N2CCCC2)cc1", "note": "(centres unmarked)", "hERG current change (%, negative = inhibition) at 10uM": -50.9}
{"smiles": "O=[N+]([O-])c1ccccc1-c1cc(-c2cc(Cl)ccc2O)n[nH]1", "hERG current change (%, negative = inhibition) at 10uM": -2.62}
{"smiles": "Cc1ccc2c(c1)C1CN(C)CCC1N2C(=S)NC(=O)c1ccc(Br)cc1", "note": "(centres unmarked)", "hERG current change (%, negative = inhibition) at 10uM": -67.1}
{"smiles": "COc1cccc(CN(C)C(=O)CN2C(=O)NC3(CCCc4ccccc43)C2=O)c1", "note": "(centres unmarked)", "hERG current change (%, negative = inhibition) at 10uM": -8.47}
{"smiles": "CC(=O)Oc1cc2c(cc1Cl)C1(CC(c3ccccc3Cl)O2)CC(C)(C)NC(=S)N1", "note": "(centres unmarked)", "hERG current change (%, negative = inhibition) at 10uM": 1.38}
{"smiles": "CCOC(=O)c1c(C)[nH]c(C)c1S(=O)(=O)N(C)CC(=O)NCc1ccc(F)cc1", "hERG current change (%, negative = inhibition) at 10uM": -20.9}
{"smiles": "COc1ccc(NC(=O)c2cc3c(s2)CCC3)cc1S(=O)(=O)N1CCOCC1", "hERG current change (%, negative = inhibition) at 10uM": -13.3}
{"smiles": "Cc1nonc1C(=O)N/N=C/c1ccc(O)cc1", "hERG current change (%, negative = inhibition) at 10uM": 3.65}
{"smiles": "Cc1cc(=O)[nH]c(SCC(=O)Nc2ccc(F)c([N+](=O)[O-])c2)n1", "hERG current change (%, negative = inhibition) at 10uM": 5.75}
{"smiles": "CN(C(=O)COc1ccccc1)C1CCS(=O)(=O)C1", "note": "(centres unmarked)", "hERG current change (%, negative = inhibition) at 10uM": 20.9}
{"smiles": "Cn1cc([N+](=O)[O-])c(C(=O)N2CCCCCC2)n1", "hERG current change (%, negative = inhibition) at 10uM": -12.3}
{"smiles": "O=C(Nc1nc(-c2ccc3c(c2)OCO3)cs1)C1CC1", "hERG current change (%, negative = inhibition) at 10uM": -5.75}
{"smiles": "O=C(NCCC(=O)N1CCCCCCC1)c1ccc(Cl)cc1", "hERG current change (%, negative = inhibition) at 10uM": 0.252}
{"smiles": "COc1ccccc1N1CCN(C2CCN(C(=O)c3cc(OC)c(OC)c(OC)c3)CC2)CC1", "hERG current change (%, negative = inhibition) at 10uM": -23.1}
{"smiles": "O=[N+]([O-])c1nn(-c2ccc3c(c2)OCCO3)n(O)c1=NC1CCCCCC1", "hERG current change (%, negative = inhibition) at 10uM": -0.515}
{"smiles": "Cc1cc(=O)[nH]c(N/N=C/CCc2ccccc2)n1", "hERG current change (%, negative = inhibition) at 10uM": 8.3}
{"smiles": "N/C(=N\\OC(=O)C1CCCCC1)c1ccncc1", "hERG current change (%, negative = inhibition) at 10uM": 14}
{"smiles": "O=S(=O)(O)c1cccc2cccc(Nc3ccccc3)c12", "hERG current change (%, negative = inhibition) at 10uM": -2.85}
{"smiles": "CCC1C(=O)NCCN1C(=O)c1ccccc1OC1CCN(S(C)(=O)=O)CC1", "note": "(centres unmarked)", "hERG current change (%, negative = inhibition) at 10uM": 38.1}
{"smiles": "COc1ccccc1NS(=O)(=O)c1cccc(C(=O)NN=C2CCCCCC2)c1", "hERG current change (%, negative = inhibition) at 10uM": 2.09}
{"smiles": "Cc1cccc(OCc2nnc(SCC(=O)N3CCCC3)o2)c1", "hERG current change (%, negative = inhibition) at 10uM": 7.09}
{"smiles": "Cc1nn(CC(=O)Nc2ccc3c(c2)oc2ccccc23)c(=O)c2ccccc12", "hERG current change (%, negative = inhibition) at 10uM": 14.1}
{"smiles": "CSc1nc(O)c(Cc2ccccc2)c(=O)[nH]1", "hERG current change (%, negative = inhibition) at 10uM": 15.6}
{"smiles": "Cc1ccc(C)c(S(=O)(=O)N2CCN(C(C)C(=O)Nc3ccccc3-c3ccccc3)CC2)c1", "note": "(centres unmarked)", "hERG current change (%, negative = inhibition) at 10uM": -9.2}
{"smiles": "CN(C1CCCCC1)S(=O)(=O)c1ccc(-n2cnnn2)cc1", "hERG current change (%, negative = inhibition) at 10uM": -29}
{"smiles": "COc1ccc(C2C(C#N)=C(N)Oc3cc(C)n(Cc4ccco4)c(=O)c32)cc1", "note": "(centres unmarked)", "hERG current change (%, negative = inhibition) at 10uM": -9.9}
{"smiles": "CC(=O)N1CCC(Nc2ccc(C)cc2)CC1", "hERG current change (%, negative = inhibition) at 10uM": -2.08}
{"smiles": "COc1cc(C)nc(NS(=O)(=O)c2ccccc2)n1", "hERG current change (%, negative = inhibition) at 10uM": 7.87}
{"smiles": "Cc1nc(NC(=S)NC(=O)COc2ccccc2Cl)ccc1Br", "hERG current change (%, negative = inhibition) at 10uM": -3.72}
{"smiles": "COc1cc(-n2c(C)nc3cc(C(=O)NCc4ccco4)ccc32)cc(OC)c1OC", "hERG current change (%, negative = inhibition) at 10uM": 6.39}
{"smiles": "O=C(NCCCCc1ccccc1)C12CN(Cc3ccccc3)CC1C(c1ccc([N+](=O)[O-])cc1)=NO2", "note": "(centres unmarked)", "hERG current change (%, negative = inhibition) at 10uM": 5.9}
{"smiles": "O=C(CSc1nc2ccccc2c(=O)n1-c1ccccc1Cl)NCC1CCCO1", "note": "(centres unmarked)", "hERG current change (%, negative = inhibition) at 10uM": -5.62}
{"smiles": "CCOc1ccccc1NC(=O)Cn1c(C)cc(COC)c(C#N)c1=O", "hERG current change (%, negative = inhibition) at 10uM": 7.92}
{"smiles": "CC12CCC(C(=O)NNc3ccccc3)(C(=O)C1=O)C2(C)C", "note": "(centres unmarked)", "hERG current change (%, negative = inhibition) at 10uM": 14.6}
{"smiles": "O=S(=O)(NCC1CCCN(Cc2ccccc2)C1)c1cccc2cccnc12", "note": "(centres unmarked)", "hERG current change (%, negative = inhibition) at 10uM": -9.85}
{"smiles": "CCCCCCC1C(C#N)=C(N)OC2=C1C(=O)CC(C)(C)C2", "note": "(centres unmarked)", "hERG current change (%, negative = inhibition) at 10uM": -0.43}
{"smiles": "C=CCOc1ccc(C2NC(=O)c3ccccc3O2)cc1", "note": "(centres unmarked)", "hERG current change (%, negative = inhibition) at 10uM": 10.2}
{"smiles": "C=CCn1c(C)cc(C(=O)COC(=O)c2ccc3c(c2)NC(=O)CS3)c1C", "hERG current change (%, negative = inhibition) at 10uM": 4.69}
{"smiles": "C[n+]1c2n(c3ccccc31)N=C(c1ccc(Cl)cc1)CS2.[Br-]", "hERG current change (%, negative = inhibition) at 10uM": -69}
{"smiles": "COc1c(C(=O)NC(=S)Nc2nnn(C)n2)cc2ccccc2c1Br", "hERG current change (%, negative = inhibition) at 10uM": 2.09}
{"smiles": "CN(C(=O)C1CCN(S(=O)(=O)c2cccs2)CC1)c1ccccc1", "hERG current change (%, negative = inhibition) at 10uM": -16.9}
{"smiles": "CCc1ccc(N2C(=O)C(Cl)=C(N3CCCCCC3)C2=O)cc1", "hERG current change (%, negative = inhibition) at 10uM": 17}
{"smiles": "CCN1CCN(C(=O)Cn2ncc3ccsc3c2=O)CC1", "hERG current change (%, negative = inhibition) at 10uM": 16.3}
{"smiles": "Cc1ccccc1OCc1nc2ccccc2c(=O)n1NC(=O)c1ccco1", "hERG current change (%, negative = inhibition) at 10uM": 13.8}
{"smiles": "COc1ccc2[nH]cc(C(=O)CN3CCN(C4CCCCC4)CC3)c2c1", "hERG current change (%, negative = inhibition) at 10uM": -54.8}
{"smiles": "CC(=O)c1ccc(NC(=S)NC(C)c2ccc(Cl)cc2Cl)cc1", "note": "(centres unmarked)", "hERG current change (%, negative = inhibition) at 10uM": 16.8}
{"smiles": "CCCCN(C)S(=O)(=O)c1ccc(C(=O)Nc2nnc(C3=COCCO3)o2)cc1", "hERG current change (%, negative = inhibition) at 10uM": 0.996}
{"smiles": "CN1CCN(c2nc(-c3ccc(Cl)cc3)cc(=O)[nH]2)CC1", "hERG current change (%, negative = inhibition) at 10uM": -15.7}
{"smiles": "CC(=O)Nc1ccc(S(=O)(=O)N2CCC(c3nc4c(nnn4Cc4ccccc4Cl)c(=O)[nH]3)CC2)cc1", "hERG current change (%, negative = inhibition) at 10uM": 9.32}
{"smiles": "O=C(NCc1ccccn1)c1cccc(NS(=O)(=O)c2ccccc2F)c1", "hERG current change (%, negative = inhibition) at 10uM": -0.556}
{"smiles": "COc1ccccc1C(=O)NNC(=S)NC(=O)c1ccco1", "hERG current change (%, negative = inhibition) at 10uM": 21.6}
{"smiles": "O=P(c1ccccc1)(c1ccccc1)C1CCCO1", "note": "(centres unmarked)", "hERG current change (%, negative = inhibition) at 10uM": 0.551}
{"smiles": "NC(=O)COc1ccc2cc(-c3ccccc3)c(=O)oc2c1", "hERG current change (%, negative = inhibition) at 10uM": -17.9}
{"smiles": "Cc1ccc(NC(=O)CS(=O)CC(=O)N(CC(=O)NC(C)(C)C)c2cccc(C)c2C)cc1", "note": "(centres unmarked)", "hERG current change (%, negative = inhibition) at 10uM": -0.116}
{"smiles": "Cc1cc(C)cc(-n2c(=O)c3ccccc3n(CC(=O)NCC3CCCO3)c2=O)c1", "note": "(centres unmarked)", "hERG current change (%, negative = inhibition) at 10uM": 9.45}
